Measurements from the supplement of paper PMC11417369.
Some of the results follow.

Tested on: PfAP2-HC AP2 domain (GST-tagged)
Test: gcPBM binding intensity (ln(normalized median fluorescence intensity)); higher = stronger DNA binding
In short: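 In this array assay, P. falciparum DNA-binding domains with a GST tag, expressed in E. coli, were applied for 1 h to primer-extended double-stranded 36-bp intergenic genomic probes and negative controls on an Agilent 4 × 180k array. Bound protein was visualised with Alexa488 anti-GST antibody at 488 nm. Binding intensity is the highest Masliner-normalised natural-log median intensity across replicate spots of either probe orientation.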

Sequence	gcPBM binding intensity (ln)
ATAAAGCCATACAATACACACATTTTACATGGCTGT [CACACA_site5756]	9.82
TAAAATTAGGAAATTGCACACAAAAAAAAACATATT [CACACA_site9349]	10.3
AAAAAAAAAAGACACACACACAAATACAAATGGTAA [CACACA_site6906]	10.5
ACCCAATTTTTTAGTACACACATATAAATATATAAA [CACACA_site4944]	9.7
TAAAACATGTTTTTATATATTATTATTATATTTATA [XGTACX_negctrl_site8]	9.62
AACACATACAGACACACACACAAAAAAAAAAAAAAA [CACACA_site6322]	10.9
CACCTGCACGATTGCACACAAATATGTTTTGAAGAT [CACACA_site2103]	9.88
ACTACATAAAATGACACACACAAACTTTAAAATTTA [CACACA_site3474]	10.2
ATATTTTCTAATCAATGTACTTATTCTACACATTAA [XGTACX_site5774]	9.71
TATATTTGGAAACACACACACAAAAAAAAAAAAAAA [CACACA_site2474]	9.98
ATATTTTATGTAAAGGTGCAAAACAACATTAAAAAA	9.84
ATATATACATTTCTATGTACATATGTATATATGTAT [XGTACX_site1522]	9.76
TTAATCTAGAGAAATTGTACATTTTATTAACACAAT [XGTACX_site1190]	9.37
ATAAAAGAAAACAATAGTACTTTAGTTTTTCTTTTT [XGTACX_site5686]	9.43
AAACAAAAGTAGAAGGTAGAGTATTTTATATTTAAA [GTGCAC_negctrl_site503]	9.57
AAACCTTTAGAAAATCGTACAAAACATAACCACCTA [XGTACX_site1098]	9.8
ATTTTTTTTTTTTGTTTTTTCTTACAAATTAAATGA [CACACA_negctrl_site1457]	9.48
AAATAACTCATGGGTTGTACTTAAAAAAAAAAAGAT [XGTACX_site4168]	9.71
TTTTTTTTTTTTCACGTGCACTATACATATAAGTAA	9.71
CTCTTGTCATTTTGCACACACACATGGATAGGTTAT [CACACA_site5655]	10.4
ATATCACATTCCACGGTACACACTAATAGAAAAATC [CACACA_site9204]	9.89
TTTATACAATTAGACACACACAAAAAGTATAAATAT [CACACA_site6637]	10.1

Sequence	gcPBM binding intensity (ln)
GGAACATATGAACTCACACACATTTTCACTTAAATA [CACACA_site3684]	10.6
TAAAATGATAAATGAATGTGATCATTTTATAAAATA [CACACA_negctrl_site674]	9.63
AATATTTATAAATTTACACACACACCGGTGAACATA [CACACA_site8579]	10.4
ATATATCACATGAACATTAAAAAAAAAAAAGAGGGG [TGCATGCA_negctrl_site187]	9.7
AAAATATATACAAGCAAACACACGTAATATATATTA [CACACA_site2152]	9.9
ATATTACTAATTAATGGTACACGTTATAATAAACTA [XGTACX_site7051]	9.55
GCATAAAATATGATCGCACACTGTTTAAAATACTTA [CACACA_site828]	9.81
AGGTAGTTCTGTATCACACACATATAAATATAAATA [CACACA_site7110]	9.89
ATACCTTCTTCATTCACACATATACGTAAAATGTTC [CACACA_site5657]	9.86
TTTAAACTAGAACAAGTGCAGATATGTATAATAATA	9.66
TATTTTTAGAAAATAAAGAAGGAGAATTGAAAATAT [CACACA_negctrl_site361]	9.49
ATTTATTTTTATCAAGCATGCATAAAAAATAAATTA [TGCATGCA_site440]	9.23
AAGAAAAGATATATATATAAATATATATATATATAT [TGCATGCA_negctrl_site353]	10
TTTTATTTTGGAACGTGTACATATAATTATTTATTG [XGTACX_site8094]	9.66
GTTCCATATATTACATGTACATATTTTTACATTTAA [XGTACX_site660]	9.95
TGATTAATAGCAGGTAGTACTATAATAATATAAATA [XGTACX_site2776]	9.65
AGAAGAAAAGAAATATGTACATAAACGTCTGAACTA [XGTACX_site1699]	9.75
ATAACAAATATGATAGCATGCTACATATTACAACTT [TGCATGCA_site524]	9.76
TTTAAAAAAAAAAAAAAAAATTCTACATGTAATTTA [CACACA_negctrl_site1205]	9.08
TGACATAAATTTAATACACACACAAAGAAAAAAAAA [CACACA_site9354]	10.2
GGTAGGTGGATATATACACACATATATTATAGATAT [CACACA_site7021]	9.88
CACAGATATATACATACACACATATATACACATATA [CACACA_site6323]	10.1
